The source gives no read counts; variants with many changes may rest on few reads.
B1: LINE1-mini (parent)
chain: GGCAGAGCUCAACACAGCGUGGCAAAGUGGCUGUGGCUAGACUGCC

Variants of: B1
Assay: self-cleavage, relative activity (ratio to wild type); higher = more cleavage; in vitro, sequencing; the parent is a self-cleaving ribozyme

Variant | self-cleavage
GGCACAGCUCAACACAGCGUGGCAAAGUGACUGUGGCGAGACUGCC [G5C G30A U38G] | 0.26
GGCAGAGCUUAACACAUCGUGGCCAAGUGGCUGUGGCUAGACUGCC [C10U G17U A24C] | 0.2
GGCCGAGCUCAACAGAGCAUGGCAAAGUGGCUGUGGCUGGACUGCC [A4C C15G G19A A39G] | 0.03
GGCAGACACCAACACAGCGUGGCAAAGUGGCUGUGGCUAGACUGCC [G7C C8A U9C] | 0.19
GGCAGAGCUCAAGACAGCGUGGCAAAGUGGCUGUGGCUAGAGUGUG [C13G C42G C45U C46G] | 0.03
GGCAUAGCUCAACGCAGCGUGUAAAAGUGGCUGUGGCUAGACUGCC [G5U A14G G22U C23A] | 0.01
GGCAGAGCUCAACACAGCGUGGCAAAGGGGCCGUGGCUAGACUGGU [U28G U32C C45G C46U] | 0.05
GGCUGAGCUCAACACAGCGUGGCAACGUGGCUGUGGCUAGGCUGCC [A4U A26C A41G] | 0
GGCAGAGCUCAACACACCGUGGCUAAGUGGCUGUGGCUAGAUUGCC [G17C A24U C42U] | 0.06
GGCACAGCUCAACACAGCGUUGCAAAGUGGCUGUGGCUAGACUACC [G5C G21U G44A] | 0.03
GGUAGAGCUCGACACAGCGUGGCAAUCUGGUUGUGGCUAGACUGUC [C3U A11G A26U G27C C31U C45U] | 0
GGCAGAGCUCAACACAGCGUGAGAAACUGGCUGUGGCUAGACUGCA [G22A C23G G27C C46A] | 1.12
GGCGGAGCUCAACAAAGCGUGGCAAAGUGGCUGUUGCUAGACUGCG [A4G C15A G35U C46G] | 0.04
GGCAGAGCCCAACACAGAGUGGCAAAGUGGCUGUUGCUAGACUGCC [U9C C18A G35U] | 0.05
GGUAGAGCUCAACACAGCGUGGCAAAGUGGCUGUGGCUAGAAUGAC [C3U C42A C45A] | 0.03
GGCAGAGCUCACCACAGCGUGGCAAAGUGGCUGUGGCCAGACCGCC [A12C U38C U43C] | 0.02
GUCAGAGCUCUAAACAGCGUGGCAAAGUGGCUGUCACUAGACUGCC [G2U A11U C13A G35C G36A] | 0.02
GGCAGAGCUCAACACAGCGUGGCACAGUGGGUGUGGCUAGGCUGCC [A25C C31G A41G] | 0.04
GGCAGAGCUAAACACAGCGUGGCACACUGGCUGUGGCUAUACUGCC [C10A A25C G27C G40U] | 0.02

Variant | self-cleavage
UGCCGAGCUCAACACAGCGUGGCAAAGUGGCUGUGGAUAGACUGCC [G1U A4C C37A] | 0.03
GGCAGAGCUCAACACAGCGUGGCAAAGUGGUUGUGGCUUGUCUGCC [C31U A39U A41U] | 0.09
GGCAGAGCCCAGCACAGCGAGGCAAAGUGGCUGUGGCUAGCCUGCC [U9C A12G U20A A41C] | 0.01
GCCAGUGCUCAACACAGCGUGGCAAAGUGGCUGUGGCAAGACUGAC [G2C A6U U38A C45A] | 0.37
GGAAGAGCUAAACACAGCGUGGCAAAGUGGCAGUGGCCAGACUGCC [C3A C10A U32A U38C] | 0.03
GGCAGAGCUCACCCCAGAGUGGCAAAGUGGCUGUGGCUAGACGGCC [A12C A14C C18A U43G] | 0.03
GGCAGAACUCAACACAGCGUGGCAAAGUGGCUGUUGCUAGACAGCC [G7A G35U U43A] | 0.19
AGCUGAGCUCAAUGCAGCGUGGCAAAGUGGCUGUGGCUAGACUGCC [G1A A4U C13U A14G] | 0.11
GGAAGAGCUCAACACAGCGUGGCAAAGUGGCUGUGGCUAGACUUCG [C3A G44U C46G] | 0.74
GGCCGAGCUCAACACAGCGUGGCAAAGUGACUGUUGCUAGACUGCC [A4C G30A G35U] | 0.11
GACAGAGCUCAACACAGCGAGGCAAAGUGGCUGUGGCUAAACUGCC [G2A U20A G40A] | 0.07
GGAAGAGCUCACCACAGCGUGGCAAAUUGGCUGUGGCUAGACUUCC [C3A A12C G27U G44U] | 0.03
GGCACAGCUCAACACAGCGUGGCAAAGUGGGUGUGGCUGGACUGCC [G5C C31G A39G] | 0.01
GGCAGAGGUCAACACAGCGUGGCAAAGUAGCUGUGGCUAGGCUGCC [C8G G29A A41G] | 0.02
GGCAGAGCACAACAUAGCGUGGCAAAGUGGCUGUGGCUGGACUGCC [U9A C15U A39G] | 0
UGCAGAGCUAAACACAGCGUGGCAAAGUGGCUGUGGCUCGACUGCC [G1U C10A A39C] | 0.01
GGCAGAGCUCAACACAGCGUGGCUAAGUGGCUGUCGAUAGACUGCC [A24U G35C C37A] | 0.06
AGCAGAGCUCAACACUGCGUGGCAGAGUGGGUGUGGCUAGACUGCC [G1A A16U A25G C31G] | 0
GGCAGAGCUCAACACAGCGAGGCAAAGUCGCUGUGGCUAGACUGUC [U20A G29C C45U] | 1.13

Variant | self-cleavage
GGCAUAGCUCAACACAGCGUGGCAAAGUGGCUCUUGCUAGACUGCC [G5U G33C G35U] | 0.06
GGCAGAGCCGGACACAGCGUGGGAAAGUGGCUGUGGCUAGACUGCC [U9C C10G A11G C23G] | 0.01
GGCAGACCUCAACACAGCGUGGCAAAGUGUAUGUGGCUAGGCUGCC [G7C G30U C31A A41G] | 0.03
GGCAGUGCUCAAUACAGCGUGGCAAAGUGGCUGAGGCUAGACUGCC [A6U C13U U34A] | 0.11
GGCAGAGCUCAACACAGCGAGGCAAAGUGGCUUUGGCUAGACUCCC [U20A G33U G44C] | 0.05
GGCAGAGCUCAACACAGCGCGGAAAAGAGGCUGUGGUUAGACUGCC [U20C C23A U28A C37U] | 0.01
GGCAGAGCUCAUCAAAGCGUGGCAAAGUGGUUGUAGCUUGACUGCC [A12U C15A C31U G35A A39U] | 0.03
GGCAGAGCUCAACACAGCGUGGCAAUGUGUCUGUGGCUAGACUGAC [A26U G30U C45A] | 0.27
GGCAGAGAUCAACACAGCGUGGCAAAGUGGCUCUGGCUAGACUGUC [C8A G33C C45U] | 0.02
GGCAGAGCUAAACCCAGCGUGGCAAAGUGGCUGUGGCUAGACUGAG [C10A A14C C45A C46G] | 0.03
AGCAGAGCGCAACACACGGUGGCAAAGUAGCUGUGGCUAAACUGCC [G1A U9G G17C C18G G29A G40A] | 0.05
GGCAGAGCUCAACACAUCGUGGCAAAGUGGCGGUGUCUAGACUGCU [G17U U32G G36U C46U] | 0.03
GGAAGAGCUCAACAUAGCGUAGCAAAGUGGCAGUGGCUAGACUGCC [C3A C15U G21A U32A] | 0.03
GGCAGAGCUCAACACAGCGUGGCAAAUUGGCUGUGACUAGAGUGCC [G27U G36A C42G] | 0.01
GCCAGAGCUCAACACAGCGUGGCAAAGUGGCGGUGGCUAGACCGCC [G2C U32G U43C] | 0.02
GCUAGAGCUCAACACAGCGUGUCAAAGUGGCAGUGGCUAGACUGCC [G2C C3U G22U U32A] | 0.06
GACACAGCUCAACACAGCGUGGCAAAGUGGCUGUGGCUAGACUACC [G2A G5C G44A] | 0.03
GGCAGAGCUCAACAAAGCGUGGCAAAGUGGCAGUGGCCAGACUGCC [C15A U32A U38C] | 0.06
